These are yes or no findings as the source states them, for the method shown. Binding seen in cells or lysates may run through a third protein.
How the values were obtained:
Assay in all cases: co-IP; endogenous proteins; anti-MTR4 antiserum, anti-RRP46 antibody or anti-RRP45 antiserum on beads, nuclear extracts of HeLa cells (Control, RRP6, MPP6, RRP6/MPP6 or DIS3 KD) and of HeLa Flp-In T-REx cells (MPP6 KD with FLAG only, FLAG-MPP6 full-length or ΔN35), overnight at 4°C; immunoblot
[1] = target: RRP45 (human (endogenous in HeLa)) (UniProt Q06265)
[2] = target: RRP46 (human (endogenous in HeLa)) (UniProt Q9NQT4)
[3] = target: T1, MTR4 (human (endogenous in HeLa)) (UniProt P42285)
T1 sequence: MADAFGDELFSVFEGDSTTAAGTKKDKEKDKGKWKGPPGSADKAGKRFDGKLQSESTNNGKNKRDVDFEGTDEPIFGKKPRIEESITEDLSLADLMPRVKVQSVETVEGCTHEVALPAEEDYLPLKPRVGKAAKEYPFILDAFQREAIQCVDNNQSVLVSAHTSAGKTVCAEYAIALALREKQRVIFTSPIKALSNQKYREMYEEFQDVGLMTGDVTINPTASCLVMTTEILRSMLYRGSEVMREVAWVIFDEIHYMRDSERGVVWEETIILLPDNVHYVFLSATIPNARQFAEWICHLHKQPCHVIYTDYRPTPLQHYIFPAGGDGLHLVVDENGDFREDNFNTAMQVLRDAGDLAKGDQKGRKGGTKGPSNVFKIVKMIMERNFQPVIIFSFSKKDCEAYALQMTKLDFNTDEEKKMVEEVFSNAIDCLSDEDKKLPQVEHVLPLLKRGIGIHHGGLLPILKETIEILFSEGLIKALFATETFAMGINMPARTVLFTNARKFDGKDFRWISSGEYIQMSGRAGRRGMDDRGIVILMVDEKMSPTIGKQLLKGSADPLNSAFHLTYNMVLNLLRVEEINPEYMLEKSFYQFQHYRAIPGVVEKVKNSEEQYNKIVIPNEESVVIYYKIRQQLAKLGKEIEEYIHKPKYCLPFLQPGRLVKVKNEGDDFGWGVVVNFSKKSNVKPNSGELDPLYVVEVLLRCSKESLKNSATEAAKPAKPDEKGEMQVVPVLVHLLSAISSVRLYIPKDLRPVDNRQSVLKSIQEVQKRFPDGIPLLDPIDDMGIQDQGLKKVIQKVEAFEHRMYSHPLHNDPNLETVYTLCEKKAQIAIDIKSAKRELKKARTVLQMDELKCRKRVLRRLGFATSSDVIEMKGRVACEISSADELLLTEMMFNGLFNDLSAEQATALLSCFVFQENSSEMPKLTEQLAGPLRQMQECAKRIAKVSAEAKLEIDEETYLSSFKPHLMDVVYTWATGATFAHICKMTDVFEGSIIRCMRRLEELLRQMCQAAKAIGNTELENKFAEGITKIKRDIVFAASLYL

Sequences of proteins named here, by UniProt entry; tags and fusion partners are left off.
UniProt Q06265: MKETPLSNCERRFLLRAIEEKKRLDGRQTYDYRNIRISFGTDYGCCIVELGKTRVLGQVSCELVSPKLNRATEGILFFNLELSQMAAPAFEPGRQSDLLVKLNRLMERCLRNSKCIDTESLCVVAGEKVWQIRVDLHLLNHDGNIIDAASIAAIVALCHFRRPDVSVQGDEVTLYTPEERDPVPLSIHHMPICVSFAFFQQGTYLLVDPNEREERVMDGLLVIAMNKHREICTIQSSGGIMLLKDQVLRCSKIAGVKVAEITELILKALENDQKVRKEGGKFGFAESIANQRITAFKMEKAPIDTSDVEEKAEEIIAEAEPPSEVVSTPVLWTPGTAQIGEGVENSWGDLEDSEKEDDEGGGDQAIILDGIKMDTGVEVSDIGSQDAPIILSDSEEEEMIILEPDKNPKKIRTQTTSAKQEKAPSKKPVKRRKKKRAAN
UniProt Q9NQT4: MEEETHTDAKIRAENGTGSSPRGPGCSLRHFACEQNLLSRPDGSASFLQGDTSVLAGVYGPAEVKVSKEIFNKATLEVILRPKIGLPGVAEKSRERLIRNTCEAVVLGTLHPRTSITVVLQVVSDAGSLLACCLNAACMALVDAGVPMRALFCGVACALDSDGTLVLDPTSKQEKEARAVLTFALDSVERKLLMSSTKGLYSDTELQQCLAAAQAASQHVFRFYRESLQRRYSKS

binding [1]: no binding
binding [2]: no binding
binding [3]: no binding
B1: DIS3 (protein, UniProt Q9Y2L1 1-958)
chain: MLKSKTFLKKTRAGGVMKIVREHYLRDDIGCGAPGCAACGGAHEGPALEPQPQDPASSVCPQPHYLLPDTNVLLHQIDVLEDPAIRNVIVLQTVLQEVRNRSAPVYKRIRDVTNNQEKHFYTFTNEHHRETYVEQEQGENANDRNDRAIRVAAKWYNEHLKKMSADNQLQVIFITNDRRNKEKAIEEGIPAFTCEEYVKSLTANPELIDRLACLSEEGNEIESGKIIFSEHLPLSKLQQGIKSGTYLQGTFRASRENYLEATVWIHGDNEENKEIILQGLKHLNRAVHEDIVAVELLPKSQWVAPSSVVLHDEGQNEEDVEKEEETERMLKTAVSEKMLKPTGRVVGIIKRNWRPYCGMLSKSDIKESRRHLFTPADKRIPRIRIETRQASTLEGRRIIVAIDGWPRNSRYPNGHFVRNLGDVGEKETETEVLLLEHDVPHQPFSQAVLSFLPKMPWSITEKDMKNREDLRHLCICSVDPPGCTDIDDALHCRELENGNLEVGVHIADVSHFIRPGNALDQESARRGTTVYLCEKRIDMVPELLSSNLCSLKCDVDRLAFSCIWEMNHNAEILKTKFTKSVINSKASLTYAEAQLRIDSANMNDDITTSLRGLNKLAKILKKRRIEKGALTLSSPEVRFHMDSETHDPIDLQTKELRETNSMVEEFMLLANISVAKKIHEEFSEHALLRKHPAPPPSNYEILVKAARSRNLEIKTDTAKSLAESLDQAESPTFPYLNTLLRILATRCMMQAVYFCSGMDNDFHHYGLASPIYTHFTSPIRRYADVIVHRLLAVAIGADCTYPELTDKHKLADICKNLNFRHKMAQYAQRASVAFHTQLFFKSKGIVSEEAYILFVRKNAIVVLIPKYGLEGTVFFEEKDKPNPQLIYDDEIPSLKIEDTVFHVFDKVKVKIMLDSSNLQHQKIRMSLVEPQIPGISIPTDTSNMDLNGPKKKKMKLGK
